In paper PMC4336329 (PLoS ONE, 2015):
Hit rate of the full screen: of about 310,000 compounds, about 2,200 (0.71%) showed an effect of 50% or more. Effects have a minus sign here. The list shows a part of the results.

target: human ether-à-go-go-related gene (hERG) potassium channel (human, UniProt Q12809); experiment: primary screen, population patch clamp on CHO cells stably expressing hERG
Sequence (Q12809 whole entry, looked up): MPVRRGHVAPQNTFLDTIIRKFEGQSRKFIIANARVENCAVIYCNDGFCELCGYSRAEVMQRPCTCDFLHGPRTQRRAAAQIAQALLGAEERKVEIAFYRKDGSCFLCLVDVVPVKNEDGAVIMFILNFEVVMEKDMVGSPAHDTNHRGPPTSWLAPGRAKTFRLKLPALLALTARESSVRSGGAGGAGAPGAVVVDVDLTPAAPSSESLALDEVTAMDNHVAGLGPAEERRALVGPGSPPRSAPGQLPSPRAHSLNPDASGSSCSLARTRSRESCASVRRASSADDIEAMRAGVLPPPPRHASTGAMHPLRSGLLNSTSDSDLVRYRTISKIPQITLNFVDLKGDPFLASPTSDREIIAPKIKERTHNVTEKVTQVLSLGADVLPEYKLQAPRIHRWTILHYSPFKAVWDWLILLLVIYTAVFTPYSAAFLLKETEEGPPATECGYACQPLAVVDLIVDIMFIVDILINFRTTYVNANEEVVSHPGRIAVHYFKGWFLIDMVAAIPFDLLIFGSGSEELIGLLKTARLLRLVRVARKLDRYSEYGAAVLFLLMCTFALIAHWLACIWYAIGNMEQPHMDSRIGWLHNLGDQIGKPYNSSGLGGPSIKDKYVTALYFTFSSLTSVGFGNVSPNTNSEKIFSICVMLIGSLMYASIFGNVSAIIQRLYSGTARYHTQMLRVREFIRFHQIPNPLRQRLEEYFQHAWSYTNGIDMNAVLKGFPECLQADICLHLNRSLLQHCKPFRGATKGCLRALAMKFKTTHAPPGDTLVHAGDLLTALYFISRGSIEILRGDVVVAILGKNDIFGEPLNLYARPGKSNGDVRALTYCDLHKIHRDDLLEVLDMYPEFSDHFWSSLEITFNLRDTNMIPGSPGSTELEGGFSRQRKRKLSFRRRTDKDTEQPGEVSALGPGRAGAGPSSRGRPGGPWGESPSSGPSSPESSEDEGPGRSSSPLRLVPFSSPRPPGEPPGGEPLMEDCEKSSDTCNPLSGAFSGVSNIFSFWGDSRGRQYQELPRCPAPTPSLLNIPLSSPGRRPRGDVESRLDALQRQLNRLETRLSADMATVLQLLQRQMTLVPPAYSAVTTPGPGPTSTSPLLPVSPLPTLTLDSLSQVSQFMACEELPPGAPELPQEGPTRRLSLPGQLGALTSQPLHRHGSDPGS

SMILES	hERG current change (%, negative = inhibition) at 1uM [%]
COc1ccc(-n2c(-c3ccccc3[N+](=O)[O-])nc3ccccc3c2=O)cc1	0.235
CCc1ccc(N2CC(C(=O)OCC(=O)Nc3ccc(C#N)cc3)CC2=O)cc1 (centres unmarked)	-25.3
O=C1SC(SCc2ccccc2Cl)=N/C1=C\c1ccc(C(=O)O)cc1	8.26
CCOC(=O)CC(=O)CSc1nc2ccc(OC)cc2cc1C	12.6
O=C(c1cc(-c2ccncc2)nc2ccc(Cl)cc12)N1CCN(C(=O)C2CCCO2)CC1 (centres unmarked)	4.95
CCCCC(=O)Nc1nnc(C2=COCCO2)o1	11.2
S=C(NCc1cccs1)Nc1ccc(Br)cc1Cl	11.5
O=C(CCS(=O)(=O)c1ccccc1)Nc1ccc2c(c1)OCO2	7.88
CC1Cc2ccccc2N1C(=O)CSc1nnnn1C1CCCC1 (centres unmarked)	-5.89
O=S(=O)(NCCN1CCOCC1)c1cc(Cl)ccc1Cl	11.3
Cc1nc(-c2cccnc2)sc1C(=O)N/N=C/c1ccccc1Cl	1.54
OC(CN1CC=C(c2ccccc2)CC1)c1ccccc1 (centres unmarked)	7.39
CS(=O)(=O)c1ccc(Cl)c(NC(=O)CCl)c1	19.7
CCOc1ccc(/C=C/C(=O)N(CC)CC(=O)NCc2cccs2)cc1OC	7.65
NC(=S)Nc1ccc(Cl)cc1Cl	12.3
Cc1cc(N2CCN(c3ccccc3)CC2)n2c(n1)nc1ccccc12	-42
CN1CCN(c2ccc(NC(=O)CSc3ccccc3)cc2F)CC1	-35.3
Cc1cc(Br)ccc1OCC(=O)NNC(=O)c1cnccn1	11.9
O=C(Nc1nnc(C2=COCCO2)o1)c1ccc(S(=O)(=O)N2CCOCC2)cc1	12.6
O=C(COC(=O)CCc1ccccc1)NC12CC3CC(CC(C3)C1)C2	3.43
COc1ccc(NS(=O)(=O)c2ccc3c(c2)OCCO3)cc1OC	15.2
CCCCn1c(SCc2c(C)noc2C)nc2cc(S(N)(=O)=O)ccc21	-2.73
Cc1nc2sc(C(c3cccc(F)c3)N3CCC(O)CC3)c(O)n2n1 (centres unmarked)	8.15

SMILES	hERG current change (%, negative = inhibition) at 1uM [%]
CC1CCSP(=O)(Oc2ccccc2)O1 (centres unmarked)	8.97
COc1ccc(C)cc1S(=O)(=O)N1CCN(C(=O)c2ncoc2-c2cccc(C)c2)CC1	13
CCN(CC)C(=O)c1sc(NC(=O)C(Sc2ccccc2)c2ccccc2)c(C(=O)OC(C)C)c1C (centres unmarked)	10.8
COc1ccccc1NC(=O)C/C(N)=N/O	3.05
COc1cc(S(=O)(=O)n2ccc(C)n2)c(OC)cc1Cl	9.61
CCOCCCNC(=O)Cn1cnc2c(cnn2-c2ccc(F)cc2)c1=O	2.63
COC(=O)C(NC(=O)c1ccccc1Cl)(Nc1ncc(S(=O)(=O)c2ccc([N+](=O)[O-])cc2)s1)C(F)(F)F (centres unmarked)	6.15
Cc1cc(C)cc(NS(=O)(=O)c2ccc3[nH]cc(C(=O)NCc4ccco4)c(=O)c3c2)c1	-6.66
CCNC(=S)Nc1cc2oc3ccccc3c2cc1OC	10.7
COc1ccc(C(=O)C2CCCN(Cc3cccn3-c3ccccn3)C2)cc1F (centres unmarked)	-87.1
Fc1ccc(C2CCCN2Cc2nc(Cc3ccccc3)no2)cc1 (centres unmarked)	8.24
N#Cc1c(NC(=O)c2ccco2)sc2c1CCC2	-10.5
O=C(Oc1c(-c2ccccc2)oc2ccccc2c1=O)c1ccccc1	-2.89
COc1ccc(C(CNC(=O)c2cc3ccccc3o2)N2CCCC2)cc1 (centres unmarked)	3.52
Cc1cc2c(cc1C)C(c1ccccc1Br)CC(=O)N2 (centres unmarked)	13.7
CS(=O)(=O)N1CCC(Oc2ccccc2C(=O)NC(C2CC2)C2CC2)CC1	-12.8
Nc1nc2c(ncn2[C@H]2C[C@H](O)[C@@H](CO)O2)c(=O)[nH]1.O	9.22
O=C(Nc1nnc(C2=COCCO2)o1)c1cccc(F)c1	18.3
Cc1ccc(CN(C(=O)c2csnn2)C(C(=O)NC2CCCC2)c2ccco2)cc1 (centres unmarked)	1.26
O=C(COC(=O)C1C2CC3OC(=O)C1C3C2)Nc1cccc(Cl)c1 (centres unmarked)	2.31
CCOC(=O)c1cc(C)nc(SC)c1C#N	10.3
O=C(Cn1cc([N+](=O)[O-])cn1)N1CCCc2ccccc21	8.12
COc1ccccc1CC(NC(C)=O)C(=O)NC1CCN(C(=O)Nc2ccccc2C)CC1 (centres unmarked)	1.1

SMILES	hERG current change (%, negative = inhibition) at 1uM [%]
CC(=O)c1ccc(OCC(=O)N(C2CCCCC2)C2CCS(=O)(=O)C2)cc1 (centres unmarked)	7.85
O=C(Cn1ccccc1=S)c1ccc(Cl)c(Cl)c1	9.54
O=C(NC(=S)Nc1ccccc1O)c1ccc(-c2ccc(Cl)cc2)o1	10.6
CCOc1ccc2nc(NC(=O)CN3CCC(n4nnc5cc(F)ccc54)CC3)sc2c1	12.9
COC(=O)c1ccc(COc2cc(C)ccc2C)o1	16.8
CCOc1ccc(S(=O)(=O)NCCOC)cc1C	14.6
COc1ccc(S(=O)(=O)Nc2ccc(Cl)cn2)c(C)c1C	9.74
COc1ccc2c(C)cc3nncn3c2c1	16.4
O=C(CCCn1c(=O)[nH]c2ccccc2c1=O)N1CCN(c2ccccn2)CC1	15.5
Cc1ccc(-c2csc(N3CCC[C@@H]3C(=O)NCCn3c(C(F)(F)F)nc4ccccc43)n2)cc1	8.6
Cn1nccc1C(=O)NC1CCCc2c1cnn2-c1ccccc1F (centres unmarked)	19.2
CC(=O)OCc1c(-c2ccccc2)c2cc([N+](=O)[O-])ccc2n1C	13.4
CC(C)NC(NC(=O)Cc1ccccc1)C(Cl)(Cl)Cl (centres unmarked)	18.1
COc1cc(OC)c(C2C(C#N)=C(C)NC(C)=C2C#N)c(C(=O)O)c1	14
C/C(=N\NC(=O)CSc1nc2nc(C)cc(C)n2n1)c1ccccc1	-6.54
CCCCNC(=O)CSc1nc(O)cc(=O)n1C1CCCC1	1.53
NS(=O)(=O)c1ccc(CCNC(=O)CN2CCN(c3cccc(Cl)c3)CC2)cc1	-3.34
Cc1cccc(-n2cnc(C(=O)N/N=C/c3ccccc3)c2)n1	9.93
C/C=C1\COC(C(=O)NCc2ccccc2)(C(F)(F)F)C=C1C=C(C)C (centres unmarked)	8.32
CCOc1ccccc1/C=C(/C#N)C(N)=O	7.24
CCc1nnc(NC(=O)CN2C(=O)NC3(CC(C)CC(C)(C)C3)C2=O)s1 (centres unmarked)	11.3
COc1ccc(OCCN(C)CC(=O)Nc2c(C)cccc2C)cc1.O=C(O)C(=O)O	7.39
CCc1ccc2nc(N(CCCN(C)C)C(=O)c3ccc(S(=O)(=O)N4CCCc5ccccc54)cc3)sc2c1.Cl	6.07

SMILES	hERG current change (%, negative = inhibition) at 1uM [%]
CSc1ccc(/C=N\Nc2nncn2N)cc1.Cl	13.8
Cc1cc(C(=O)O)ccc1-c1ccc(/C=C2\SC(=O)N(CC(=O)Nc3ccc4c(c3)OCO4)C2=O)o1	12.8
Cc1cc(=O)oc2cc(OCC(=O)N3CCN(C(C)c4ccccc4)CC3)c(Cl)cc12 (centres unmarked)	4.74
CC(=O)NCCc1nc(-c2ccc(Cl)cc2)no1	10.3
COCc1c(C(=O)OCC(=O)N2c3ccccc3CC2C)oc2ccccc12 (centres unmarked)	13.9
COc1ccc(-c2nc(C)ncc2-c2ccc(Cl)cc2)c(O)c1	-5.49
O=C(COC(=O)c1c2ccccc2cc2ccccc12)Nc1ncc(C(F)(F)F)cc1Cl	3.82
CCOC(=O)c1c(C)n(C)c2ccc(OC)c(NC(=O)CN3CCC4(CC3)OCCO4)c12	3.27
CN(CC(=O)Nc1ccccc1C(F)(F)F)C(=O)CN1C(=O)C2CCCCC2C1=O (centres unmarked)	12.5
C/C(=N/NC(=O)c1ccc(Br)o1)C(C)C	7.95
COc1ccc(C/C(=N\O)c2ccc(OC)cc2)cc1	10.3
O=C(NCCCCc1ccccc1)c1ccc(F)cc1	6.87
Cc1cccc(N2CCN(C(=O)CCS(=O)(=O)c3ccc4c(c3)oc(=O)n4C)CC2)c1C	1.7
CC(C)(O)C#Cc1ccc(CN2CCC(n3nccc3NC(=O)C3CC3)CC2)cc1	6.7
CN(c1ccc(OCC(=O)N2CCOCC2)cc1)S(=O)(=O)c1ccc(F)cc1	9.65
CCCCCCCCC(=O)NC(NC(=S)N1CCOCC1)C(Cl)(Cl)Cl (centres unmarked)	12.2
CC(C)=CC(=O)N1CCCC(N2CCN(c3ccc(F)cc3)CC2)C1 (centres unmarked)	19.1
Clc1ccc(SCc2cc(N3CCOCC3)nc(-c3ccccn3)n2)cc1	-1.17
Cc1ccc(Cn2c(SCc3cccnc3)nc3c2c(=O)n(C)c(=O)n3C)cc1	10.4
O=C(NNC(=O)c1ccccc1OCc1ccccc1)c1ccccc1F	14.9
